In PubChem BioAssay AID1963576 (National Center for Advancing Translational Sciences (NCATS), 2024):
Out of some 46,000 compounds screened, about 60 (0.1%) were called active. Roughly 3% stayed inconclusive and do not appear here. Calls come from the whole dose curve; as a rule, active = well fitted inhibition curve with a large enough effect; inconclusive = small, poorly fitted or top-dose-only effect; inactive = no such curve, though single readings can be large or run the other way. The list shows a part of the results.

Assay: Primary qHTS assay for Inhibitors of ovarian cancer metastasis using an organotypic tumor microenvironment (TME) model.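 For activity change, negative = inhibition: plate controls were DMSO wells for no effect and tomatine positive control wells for full effect.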 Note: nearly all actives have a fitted effect of over 65% in size.
Conditions: SKOV3ip1-GFP adhesion/invasion on 3D omental model, fluorescence; series mostly up to 45.8 µM; activity change, negative = inhibition: at the top concentration
Method in brief: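 Adhesion/invasion was scored as fixed GFP-labeled SKOV3ip1 cell counts (488/509 nm), normalized to DMSO and tomatine controls. Cancer cells in serum-free medium, with four compound doses (0.36-46 umol/L), sat 2 hr at RT then 16 hr at 37 C on a 48 hr fibroblast/mesothelial/ECM culture.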

Activity change, negative = inhibition, inactive:
Cc1csc2nc(COc3ccc(NC(=O)COc4ccccc4F)cc3)cc(=O)n12 -12.9%
COc1ccccc1Cn1c(CNS(=O)(=O)c2ccc3c(c2)CCCC3)nc2cccnc21 25.2%
Fc1ccc(Nc2nc3nonc3nc2Nc2cccc(C(F)(F)F)c2)cc1 -2.9%
O=C(Cn1c(=O)n(-c2ccc(Cl)cc2)c(=O)c2c3c(sc21)CCC3)c1ccc(F)cc1 0.646%
CCCCCOC(=O)CSc1nc2sc3c(c2c(=O)n1Cc1ccccc1)CC(C)(C)OC3 17%
Cn1c(CNC(=O)CSc2n[nH]c(-c3ccccc3)n2)nc2ccccc21 -3.4%
CCC(Sc1nc2c(sc3ccccc32)c(=O)n1CCCC(=O)NC1CCCC1)C(=O)Nc1cccc(OC)c1 (configuration not stated) 2.06%
CC(C)CC(=O)N1CC(=O)Nc2ccc(F)cc2C1c1ccccc1 (configuration not stated) -1.82%
Cc1ccc(NC(=O)CSc2nnc3[nH]c(=O)cc(C)n23)cc1Cl -5.83%
CC(C)OCCCn1c(SCC(=O)Nc2ccc(F)cc2)nc2c(sc3ccccc32)c1=O 17.2%
NCCCC(N)(C(=O)O)C(F)F (configuration not stated) 5.36%
O=[N+]([O-])c1cc(-c2nc(-c3ccccc3)no2)ccc1N1CCCC1 -4.89%
O=C(CSc1nc(-c2ccccc2)[nH]c1-c1ccccc1)Nc1ccc2c(c1)OCO2 -12%
Cc1cccc(Nc2nc(-c3ccccc3)c3cc(C)ccc3n2)c1 3.17%
Cc1ccc(-c2nc3ccccc3o2)cc1NC(=O)c1cccc2c(Cl)cccc12 3.65%
CCC(=O)N1c2ccccc2CC1C(=O)NCCN1CCN(c2cccc(C)c2C)CC1 (configuration not stated) 0.133%
Cc1nc2sccn2c(=O)c1S(=O)(=O)Nc1ccc(N2CCN(S(C)(=O)=O)CC2)cc1 -0.696%
CSc1ccc(CCNC(=O)CCn2c(=O)c3cccn3c3cccnc32)cc1 10.9%
CCS(=O)(=O)N1CCc2cc(C(=O)Nc3cccc(C)c3C)ccc21 -2.26%
CCCc1ccc(OC(=O)CSc2nnc(-c3cccs3)o2)cc1 -10.6%
O=C(Nc1ccc(F)cc1)C1CCN(c2nc3ccccc3n3cccc23)CC1 -7.44%
CCOC(=O)C1CCCN(C(=O)c2c(C)nn(-c3ccc(F)cc3)c2-n2cccc2)C1 (configuration not stated) 25.6%
COc1ccc(NC(=O)c2cc3c(=O)n(C)c4ccccc4c3s2)cc1Cl -4.04%
Cc1ccc(OCCSc2nc3ccc(NC(=O)c4ccc5c(c4)OCO5)cc3s2)cc1 6.37%
O=C(CCn1cccn1)NCc1ccc(Cl)cc1 8.16%
CCOC(=O)C(CC)Sc1ncnc2sc3c(c12)CCCC3 (configuration not stated) -9.8%
Cc1nc(-n2nc(C)c(Cc3ccccc3Cl)c2C)sc1C(=O)N1CCC(C)CC1 -5.55%
CC(=O)c1cccc(NCc2ccccc2-c2nnc(-c3ccccc3)o2)c1 -14.1%
Cc1cccc(NC(=O)CSc2nnc(N)s2)c1 3.95%
O=C(NC1(C(F)(F)F)NC(=O)N(CCc2ccccc2)C1=O)c1ccccc1Cl (configuration not stated) 7.42%
Cc1oc2ccc(O)c(CN3CCCCCC3)c2c1C(=O)Nc1cccc(Cl)c1C -14.3%
Cc1cccc(-n2ncc(C(=O)N3CCc4ccccc4C3)c2C2CCN(C(=O)OC(C)(C)C)CC2)c1 -32.8%
Cc1ccc(S(=O)(=O)Nc2cc(Cl)ccc2C(=O)Nc2nc(-c3ccccc3)cs2)cc1 3.52%
COC(=O)c1nnn(CC(=O)Nc2cc(F)ccc2F)c1C(=O)OC -1.62%
O=C(C1CCN(S(=O)(=O)c2cccs2)CC1)N1CCN(c2cccc(Cl)c2)CC1 -13.7%
CCSc1ncc(Cl)c(C(=O)N(Cc2ccccc2Cl)C2CCS(=O)(=O)C2)n1 (configuration not stated) 3.55%
CCN(CC)CCCNC(=O)c1ccc2c(c1)N(Cc1c(F)cccc1Cl)C(=O)c1ccccc1S2 -9.19%
N#Cc1c[nH]n2c(NC3CCCCC3)c(-c3ccccc3F)nc12 -1%
Cc1nn2c(=O)cc(COC(=O)c3cccc(NC(=O)COc4ccc(C)c(C)c4)c3)nc2s1 -9.01%
COc1cccc(/C=C/c2nc(C#N)c(N3CCCCCC3)o2)c1 3.82%
Cc1ccc(NC(=O)CCCN2C(=O)COc3ccc(C)cc32)c(Cl)c1 3.95%
CCC1Oc2ccc(C)cc2N(CC(=O)NCCc2ccccc2)C1=O (configuration not stated) 9.63%
CCOC(=O)c1cnc2ccc(OC(F)(F)F)cc2c1Nc1ccccc1C(=O)O -2.47%
CCOc1ccc(CCNC(=O)CCn2c(=O)c3cccn3c3ccc(F)cc32)cc1 3.09%
CCc1ccccc1NS(=O)(=O)c1ccc2[nH]cc(C(=O)NC3CCCC3)c(=O)c2c1 13.6%
COC(=O)Cc1c(C)c2ccc3c(c2oc1=O)CN(Cc1ccc(C)cc1)CO3 0.177%
COc1ccc(-n2nnnc2SCC(=O)NCCc2ccccc2)cc1 7.77%
Cc1ccccc1-c1noc(CSc2nc(-c3ccc(F)cc3)cc(=O)[nH]2)n1 -9.03%
O=C(Nc1ccc(OCc2cc(=O)n3c4c(sc3n2)CCCC4)cc1)c1ccc(F)cc1 -1.45%
CCOc1ccc(C(=O)NCCc2sc(-c3cccc(F)c3)nc2C)cc1OCC 3.77%
CCc1ccc(N2CC(c3nc4ccccc4n3Cc3ccccc3C)CC2=O)cc1 (configuration not stated) -26.1%
Cc1cccc(CNC(=O)CCCN2C(=O)c3cccnc3Oc3ccccc32)c1 1.49%
COc1ccc(Cn2c(NCC(C)C)nc3c2c(=O)n(C)c(=O)n3C)cc1 26.2%
Cc1ccc(C2=NN(CCC(=O)NCCc3cccc(C)c3)C(=O)CC2)cc1 5.07%
CN(C(=O)CSc1nc2ccc(NC(=O)c3ccccc3)cc2s1)c1ccccc1 -22%
O=C(CSc1oc(-c2cccs2)nc1S(=O)(=O)c1ccccc1)Nc1ccc(F)cc1 -12.1%
COc1cc(CN(C(=O)c2ccc(C)cc2)c2ccccn2)cc(OC)c1OC 2.23%
Cc1ccc(-n2nc(C)c3c(C(=O)Nc4ccc(C)cc4Cl)cc(C)nc32)cc1 11.4%
CCOC(=O)CSc1nc(-c2ccc(OC)cc2)cc(C(F)(F)F)c1C#N 8.82%
CCOc1ccccc1/C=C/c1onc(C)c1S(=O)(=O)N1CCC(C(=O)N2CCCCC2)CC1 -5.7%
COc1ccc(OC)c(CNC(=O)c2cnc(N(C)C)nc2)c1 1.75%
CC(=O)Nc1cccc(-c2nnc(SCC(=O)c3ccc([N+](=O)[O-])cc3)o2)c1 3.93%
COc1ccc(C(=O)CC2(O)C(=O)N(CCc3ccccc3)c3ccc(Br)cc32)cc1OC (configuration not stated) -8.15%
O=S(=O)(c1ccc2nc(Nc3ccc(Br)cc3F)ccc2c1)N1CCCC1 1.72%
Cc1ccccc1-c1noc(-c2ccc(NC3CCCC3)c([N+](=O)[O-])c2)n1 -12.7%
COc1cccc(-n2c(=O)c3c4c(sc3n(Cc3ccccc3C#N)c2=O)CCCC4)c1 3.55%
COc1ccc(-n2nc(C(=O)N3CCN(c4cccc(C)c4)C(C)C3)c3c4ccccc4n(C)c3c2=O)cc1Cl (configuration not stated) -12.1%
CCCCn1c(C2CC(=O)N(c3ccc(OCC)cc3)C2)nc2ccccc21 (configuration not stated) 1.23%
CCOc1ccc(OCC)c(NS(=O)(=O)c2ccc3c(c2)CCCN3C(C)=O)c1 4.87%
CCc1nnc(NC(=O)c2nc(SCc3ccc(F)cc3)ncc2Cl)s1 -3.66%
O=C(Cn1cc(SCc2ccc(F)cc2)c2ccccc21)N1CCCC1 -1.91%
COc1ccc(S(=O)(=O)N2CCC(c3nnnn3-c3ccccc3)CC2)cc1OC -2.97%
CCC(C(=O)NC1CCCCC1)n1nc(C)c2sc3ccccc3c2c1=O (configuration not stated) 6.4%
Cc1ccc(Cl)cc1N1CCN(C(=O)c2cnc3c(-c4ccc(F)cc4)c(C)nn3c2C)CC1 4.85%
O=C(Nc1ccccc1C(F)(F)F)C1CCN(c2nnc(-n3cccc3)s2)CC1 -8.48%
Cc1cccc(S(=O)(=O)c2cn(Cc3ccc(F)cc3)c3cc(N4CCOCC4)c(F)cc3c2=O)c1 -1.85%
COCC(C)NC(=O)C1=CC(c2ccc3c(c2)OCO3)=NS(=O)(=O)N1C (configuration not stated) -2.02%
CCOCCn1c(=NC(=O)c2ccc3c(c2)OCCO3)sc2cc(OCC)ccc21 -8.3%
Cc1cc(C)c(NC(=O)c2ccc3nc(C(C)C)oc3c2)c(C)c1 -18.9%

outcome, inactive:
CCCCc1nn2c(=O)cc(COC(=O)c3ccc(NC(=O)c4cccs4)cc3)nc2s1
CCN1CCSc2ccc(C(=O)NCc3cccc(F)c3)cc21
CC(C)(C)C1CCc2c(sc(NC(=O)Cn3nnc(-c4cccc(C(F)(F)F)c4)n3)c2C#N)C1 (configuration not stated)
COc1cccc(CNC(=O)CCc2nnc3n(CC(C)C)c(=O)c4ccccc4n23)c1
Cc1ccccc1NCc1cccn1-c1nnc(N2CCOCC2)s1
CCOc1ccc(-c2cc3c(=O)n(CC(=O)NCc4ccc(OC)cc4)ccn3n2)cc1
CCOc1ccc(S(=O)(=O)N2CCC(N3CCN(Cc4ccc(F)cc4)C(=O)C3=O)CC2)cc1
CSc1ncc2c(n1)-c1ccccc1N(Cc1ccc(F)cc1)S2(=O)=O
O=C(NCCc1ccc(Cl)cc1)C(=O)NCC(c1ccco1)S(=O)(=O)c1cccs1 (configuration not stated)
O=C(Nc1cccc(C(F)(F)F)c1)C1CCN(S(=O)(=O)c2cccc3nsnc23)CC1
COc1ccc(-c2cnc(C)o2)cc1S(=O)(=O)Nc1cccc(C(F)(F)F)c1
CCOC(=O)c1cnn2c(C(F)(F)F)cc(-c3ccc(Br)cc3)nc12
Cc1ccc(NC(=O)Cn2nc(C(F)(F)F)c3c2CCC3)cc1C
NC(=O)C1CCN(c2ncnc3c2cnn3-c2cccc(Cl)c2)CC1
COc1ccc(-c2noc(-c3ccc(NCc4ccco4)c([N+](=O)[O-])c3)n2)cc1OC
O=C(Cn1nc2c(cc1=O)CCCC2)NCc1ccccc1
O=C(OCC1CCCO1)c1ccc2c(c1)N(Cc1c(F)cccc1Cl)C(=O)c1ccccc1S2(=O)=O (configuration not stated)
CCN(CC)S(=O)(=O)c1ccc2c(c1)c(=O)c(C(=O)N1CCN(c3cc(C)ccc3C)CC1)cn2C
